Laboratory results reported in the supplement of paper PMC9174493.
Some of the results follow. Single values of this set are uncertain. Values with irradiation are relative to irradiated vehicle.

The molecules below were run on A549-Dual (assay: ISRE reporter (Lucia luciferase) activity, viability-corrected, relative to vehicle (fold change vs vehicle); higher = more activation of STING-IRF / NF-kB immune response reporter). Settings: 10 µM; irradiation: 8 Gy/4 fr.

Row | SMILES | ISRE reporter
1 | O=C1CC(c2ccc(O)c(O)c2)Oc2cc(O)cc(O)c21 (centres undefined) [Eriodictyol] | 1.07
2 | OCC(CO)NC1CC(O)(CO)C(O)C(O)C1O (centres undefined) [Voglibose] | 0.788
3 | Nc1ncnc2c1ncn2C1OC(COP(=O)(O)OP(=O)([O-])OP(=O)([O-])O)C(O)C1O.[Na+].[Na+] (centres undefined) [Adenosine disodium triphosphate] | 0.976
4 | CC(O)C1C(=O)N2C(C(=O)O)=C(SCCNC=N)CC12.O (centres undefined) [Imipenem] | 0.918

Same assay, conditions: 10 µM; irradiation: none

Row | SMILES | ISRE reporter
5 | CCOC(=O)n1ccn(C)c1=S [Carbimazole] | 0.803
6 | OCC(O)CN1CCN(c2ccccc2)CC1 (centres undefined) [Dropropizine] | 0.484
7 | Cc1cc(=O)n(-c2ccccc2)n1C [Antipyrine] | 0.834
8 | COc1ccc(CCNCC(O)COc2cccc(C)c2)cc1OC.Cl (centres undefined) [Bevantolol hydrochloride] | 0.808
9 | CC(O)C1C(=O)N2C(C(=O)OCOC(=O)C(C)(C)C)=C(SC3CN(C4=NCCS4)C3)C(C)C12 (centres undefined) [Tebipenem Pivoxil] | 0.758
10 | COC(=O)c1ccc(O)cc1 [Methyl 4-hydroxybenzoate] | 0.551
11 | O=C(O)CCCCC1CCSS1 (centres undefined) [Thioctic acid] | 0.831
12 | CCN(CC)CCOC(=O)C(c1ccccc1)C1CCCCC1.Cl (centres undefined) [Drofenine Hydrochloride] | 0.736
13 | Cc1ccc(Sc2ccccc2N2CCNCC2)c(C)c1 [Vortioxetine] | 0.863
14 | O=C1C(CCC(O)c2ccc(F)cc2)C(c2ccc(O)cc2)N1c1ccc(F)cc1 (centres undefined) [Ezetimibe] | 0.754
